Experimental data as given in the supplement of paper PMC8728848.
This is one part of the list.

Columns and labels:
Assay in all cases: glycan array binding signal (z-score within array); higher = stronger binding
Settings in all cases: glycan notation: IUPAC condensed, linker removed
Fuc(a1-2)Gal = target: Fuc(a1-2)Gal
Summary of the method: (§1)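 From the Consortium for Functional Glycomics database, 3228 arrays were curated, keeping only those whose protein sequence was available. Binding is given as a within-array Z-score averaged across arrays sharing a protein sequence and across linkers. Negative Z-scores can be read as non-binding.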

Fuc(a1-2)Gal(b1-3)GalNAc = target: Fuc(a1-2)Gal(b1-3)GalNAc
Summary of the method: as §1

[1] = target: Fuc(a1-2)Gal(b1-3)GalNAc(a1-3)[Fuc(a1-2)]Gal(b1-4)Glc
Summary of the method: as §1

[2] = target: Fuc(a1-2)Gal(b1-3)GalNAc(a1-3)[Fuc(a1-2)]Gal(b1-4)GlcNAc
Summary of the method: as §1

[3] = target: Fuc(a1-2)Gal(b1-3)GalNAc(b1-3)Gal
Summary of the method: as §1

[4] = target: Fuc(a1-2)Gal(b1-3)GalNAc(b1-3)Gal(a1-4)Gal(b1-4)Glc
Summary of the method: as §1

[5] = target: Fuc(a1-2)Gal(b1-3)GalNAc(b1-4)[Neu5Ac(a2-3)]Gal(b1-4)Glc
Summary of the method: as §1

Fuc(a1-2)Gal(b1-3)GlcNAc = target: Fuc(a1-2)Gal(b1-3)GlcNAc
Summary of the method: as §1

[6] = target: Fuc(a1-2)Gal(b1-3)GlcNAc(b1-2)Man(a1-3)[Fuc(a1-2)Gal(b1-3)GlcNAc(b1-2)Man(a1-6)]Man(b1-4)GlcNAc(b1-4)GlcNAc
Summary of the method: as §1

[7] = target: Fuc(a1-2)Gal(b1-3)GlcNAc(b1-2)Man(a1-3)[Fuc(a1-2)Gal(b1-3)GlcNAc(b1-2)Man(a1-6)]Man(b1-4)GlcNAc(b1-4)[Fuc(a1-6)]GlcNAc
Summary of the method: as §1

[8] = target: Fuc(a1-2)Gal(b1-3)GlcNAc(b1-3)Gal(b1-4)Glc
Summary of the method: as §1

[9] = target: Fuc(a1-2)Gal(b1-3)GlcNAc(b1-3)GalNAc
Summary of the method: as §1

[10] = target: Fuc(a1-2)Gal(b1-3)GlcNAc(b1-3)[Fuc(a1-2)Gal(b1-3)GlcNAc(b1-6)]GalNAc
Summary of the method: as §1

[11] = target: Fuc(a1-2)Gal(b1-3)GlcNAc(b1-3)[Gal(b1-4)GlcNAc(b1-6)]Gal(b1-4)Glc
Summary of the method: as §1

[12] = target: Fuc(a1-2)Gal(b1-3)GlcNAc(b1-3)[Neu5Ac(a2-6)Gal(b1-4)GlcNAc(b1-6)]Gal(b1-4)Glc
Summary of the method: as §1

[13] = target: Fuc(a1-2)Gal(b1-3)GlcNAc6S
Summary of the method: as §1

[14] = target: Fuc(a1-2)Gal(b1-3)[Fuc(a1-4)]GlcNAc
Summary of the method: as §1

[15] = target: Fuc(a1-2)Gal(b1-3)[Fuc(a1-4)]GlcNAc(b1-2)Man(a1-3)[Fuc(a1-2)Gal(b1-3)[Fuc(a1-4)]GlcNAc(b1-2)Man(a1-3)]Man(b1-4)GlcNAc(b1-4)GlcNAc
Summary of the method: as §1

[16] = target: Fuc(a1-2)Gal(b1-3)[Fuc(a1-4)]GlcNAc(b1-2)Man(a1-3)[Fuc(a1-2)Gal(b1-3)[Fuc(a1-4)]GlcNAc(b1-2)Man(a1-6)]Man(b1-4)GlcNAc(b1-4)[Fuc(a1-6)]GlcNAc(b1-4)[Fuc(a1-6)]GlcNAc
Summary of the method: as §1

[17] = target: Fuc(a1-2)Gal(b1-3)[Fuc(a1-4)]GlcNAc(b1-3)[Fuc(a1-3)[Gal(b1-4)]GlcNAc(b1-6)]Gal(b1-4)Glc
Summary of the method: as §1

[18] = target: Fuc(a1-2)Gal(b1-3)[Fuc(a1-4)]GlcNAc(b1-3)[Gal(b1-4)GlcNAc(b1-6)]Gal(b1-4)Glc
Summary of the method: as §1

[19] = target: Fuc(a1-2)Gal(b1-4)Fuc(a1-3)]GlcNAc(b1-2)Man(a1-3)[Fuc(a1-2)Gal(b1-4)[Fuc(a1-3)]GlcNAc(b1-2)Man(a1-6)]Man(b1-4)GlcNAc(b1-4)GlcNAc
Summary of the method: as §1

Fuc(a1-2)Gal(b1-4)Glc = target: Fuc(a1-2)Gal(b1-4)Glc
Summary of the method: as §1

Fuc(a1-2)Gal(b1-4)Glc6S = target: Fuc(a1-2)Gal(b1-4)Glc6S
Summary of the method: as §1

Fuc(a1-2)Gal(b1-4)GlcNAc = target: Fuc(a1-2)Gal(b1-4)GlcNAc
Summary of the method: as §1

[20] = target: Fuc(a1-2)Gal(b1-4)GlcNAc(b1-2)Man
Summary of the method: as §1

[21] = target: Fuc(a1-2)Gal(b1-4)GlcNAc(b1-2)Man(a1-3)[Fuc(a1-2)Gal(b1-4)GlcNAc(b1-2)Man(a1-6)]Man(b1-4)GlcNAc(b1-4)GlcNAc
Summary of the method: as §1

[22] = target: Fuc(a1-2)Gal(b1-4)GlcNAc(b1-2)Man(a1-3)[Fuc(a1-2)Gal(b1-4)GlcNAc(b1-2)Man(a1-6)]Man(b1-4)GlcNAc(b1-4)[Fuc(a1-6)]GlcNAc
Summary of the method: as §1

[23] = target: Fuc(a1-2)Gal(b1-4)GlcNAc(b1-2)[Fuc(a1-2)Gal(b1-4)GlcNAc(b1-4)]Man(a1-3)[Fuc(a1-2)Gal(b1-4)GlcNAc(b1-2)Man(a1-6)]Man(b1-4)GlcNAc(b1-4)GlcNAc
Summary of the method: as §1

[24] = target: Fuc(a1-2)Gal(b1-4)GlcNAc(b1-3)Gal(b1-4)GlcNAc
Summary of the method: as §1

B1: GSL-I (Griffonia simplicifolia) (protein)
chain: FNLPNFWSDVKDNIIFQGDANTTAGTLQLCKTNQYGNPLQYRAGRALYSDPVQLWDNKTGSVASFYTEFTFFLKITGDGPADGLAFFLAPPDSDVKDAGAYLGLFNKSTATQPSKNQVVAVEFDTWKNTDFPEPSYRHIGINVNSIVSVATKRWEDSDIFSGKIATARISYDGSAKILTVVLSYPDGADYILSHSVDLSKNLPNPIRVGISASTGANQFLTVYVLSWRFSSALQSTSVNAAMGPEIIRTVV
- glycan array binding signal (z-score) (Fuc(a1-2)Gal): -0.177
- glycan array binding signal (z-score) (Fuc(a1-2)Gal(b1-3)GalNAc): -0.168
- glycan array binding signal (z-score) [1]: -0.16
- glycan array binding signal (z-score) [2]: -0.242
- glycan array binding signal (z-score) [3]: -0.073
- glycan array binding signal (z-score) [4]: -0.244
- glycan array binding signal (z-score) [5]: -0.173
- glycan array binding signal (z-score) (Fuc(a1-2)Gal(b1-3)GlcNAc): -0.237
- glycan array binding signal (z-score) [6]: 0.281
- glycan array binding signal (z-score) [7]: -0.103
- glycan array binding signal (z-score) [8]: -0.052
- glycan array binding signal (z-score) [9]: -0.157
- glycan array binding signal (z-score) [10]: -0.061
- glycan array binding signal (z-score) [11]: -0.207
- glycan array binding signal (z-score) [12]: -0.246
- glycan array binding signal (z-score) [13]: -0.187
- glycan array binding signal (z-score) [14]: 0.027
- glycan array binding signal (z-score) [15]: 0.059
- glycan array binding signal (z-score) [16]: 0.059
- glycan array binding signal (z-score) [17]: 0.085
- glycan array binding signal (z-score) [18]: -0.08
- glycan array binding signal (z-score) [19]: 0.367
- glycan array binding signal (z-score) (Fuc(a1-2)Gal(b1-4)Glc): -0.208
- glycan array binding signal (z-score) (Fuc(a1-2)Gal(b1-4)Glc6S): -0.02
- glycan array binding signal (z-score) (Fuc(a1-2)Gal(b1-4)GlcNAc): -0.213
- glycan array binding signal (z-score) [20]: -0.266
- glycan array binding signal (z-score) [21]: 0.12
- glycan array binding signal (z-score) [22]: -0.072
- glycan array binding signal (z-score) [23]: -0.104
- glycan array binding signal (z-score) [24]: -0.241
